To fix the notation:
B1: tRNA (parent)
chain: CUCUCGGUAGCCAAGUUGGUUUAAGGCGCAAGACUUUAAUUUAUCACUACGAAAUCUUGAGAUCGGGCGUUCGACUCGCCCCCGGGAGAUUUUUUCCUCGAGCAA

Variants at the background level are over-represented here.

Variants of B1 are the subject of this data set. The experiment in a line: nonsense suppression (GFP-seq) (ratio to wild type); higher = more function; SUP4oc tRNA, yeast GFP reporter sort-seq. A digest of the protocol: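 To measure nonsense suppression, tRNA variants from a library carrying ~3% random mutations were integrated into the yeast genome alongside RFP and a GFP ochre reporter under galactose control. Growth took place in raffinose/galactose medium supplemented with 80 mg/L adenine, followed by sorting into GFP/RFP bins and Illumina sequencing of each bin (phred ≥30). For each variant with ≥100 reads and ≥30 cells, the bin median GFP/RFP values were weighted by its estimated cell share per bin and referenced to the unmutated parent tRNA.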
As to C1U G78U, the nonsense suppression was not above 0.026.

For the variant C56U U57A G59A, the nonsense suppression was not above 0.026.

On to A23G A30C G73A, for which the nonsense suppression is not above 0.026.

In the case of A31U A54C U57C, the nonsense suppression is not above 0.026.

For C5U A9U U35A U57G, the nonsense suppression was not above 0.026.

On to G15U C27U G88C, for which the nonsense suppression is not above 0.026.

With A14G G15U, the nonsense suppression is not above 0.026.

Turning to U4A G7U A14U A24C G26U C79G, the nonsense suppression was not above 0.026.

C56G C83G: the nonsense suppression is not above 0.026.

For U21A G26C C34A A89C, the nonsense suppression is not above 0.026.

Consider G10A G73C C79G G85C G86A, for which the nonsense suppression is not above 0.026.

For the variant G15U U20G U63G G86A, the nonsense suppression is not above 0.026.

With U2A G61A, the nonsense suppression was 0.0448.

Regarding A13U C34G C56A, the nonsense suppression is not above 0.026.

Turning to A33C A54C G84U, the nonsense suppression was not above 0.026.

Turning to U17C C72U, the nonsense suppression was not above 0.026.

As to A14U U58A, the nonsense suppression was not above 0.026.

Regarding G7U A33G U76C, the nonsense suppression was not above 0.026.

Regarding U20A U63C, the nonsense suppression worked out at 0.191.

As to U4C C12A G67C G73A, the nonsense suppression was not above 0.026.

Regarding A9G C56A C83A, the nonsense suppression was not above 0.026.

On to C12A G19U, for which the nonsense suppression is not above 0.026.

With U16C U71A, the nonsense suppression was not above 0.026.

As for G59A G86C, the nonsense suppression was not above 0.026.

Consider U21G G28A A31G, for which the nonsense suppression worked out at 0.266.

Consider C12G U16A A31C U55G G73C, for which the nonsense suppression is not above 0.026.

On to A23G A24G C64A G69U C79G, for which the nonsense suppression is not above 0.026.

Regarding G6U G7C C82G G88A, the nonsense suppression is not above 0.026.

As for G32C U63C C81A, the nonsense suppression is not above 0.026.

For C3G G73U A74C, the nonsense suppression is not above 0.026.

U22A G65A: the nonsense suppression was 0.12.

With A24G A74G, the nonsense suppression was not above 0.026.

For the variant C27U U71G, the nonsense suppression was not above 0.026.

Regarding A30C A33U U57A, the nonsense suppression was not above 0.026.

Turning to U20G C34A, the nonsense suppression was not above 0.026.

Consider C80A A87G, for which the nonsense suppression is not above 0.026.

Take C5G G32C C56G: the nonsense suppression was not above 0.026.

As for U4C U57G, the nonsense suppression turned out to be 0.0337.

As for A24C U71A G78C C80A A87G, the nonsense suppression is not above 0.026.

Take G18U U20G A30C U57A G78A C80U G85U: the nonsense suppression was not above 0.026.

Turning to A13U G28U A30C U55G, the nonsense suppression was not above 0.026.

Turning to G15U U17A U70A G84C G88U, the nonsense suppression is not above 0.026.

In the case of A14U C27G A60U, the nonsense suppression was not above 0.026.

G18A U63A G66A A89U: the nonsense suppression was not above 0.026.

In the case of C5A G25A, the nonsense suppression is not above 0.026.

Regarding C11G U20C U22C C79A, the nonsense suppression is not above 0.026.

For the variant U8A U55C, the nonsense suppression was not above 0.026.

In the case of U4G G18A, the nonsense suppression is not above 0.026.

For the variant C11G U16G C77U, the nonsense suppression was not above 0.026.

Consider G19A U63G, for which the nonsense suppression is 0.143.

On to C5A C79A A89C, for which the nonsense suppression is not above 0.026.

With A14C U20G G25C A33G C56G U71G, the nonsense suppression was not above 0.026.

A9U U55A G84A: the nonsense suppression is not above 0.026.

Regarding U21G G32A G61U, the nonsense suppression is not above 0.026.

Turning to G28C C83G, the nonsense suppression was not above 0.026.

With G28U G61U, the nonsense suppression is 0.191.

On to C64G G69C, for which the nonsense suppression is not above 0.026.

For the variant G10U G61A A62U U76C C77U G85U, the nonsense suppression is not above 0.026.

As for A60G U71C, the nonsense suppression came to 0.0362.

With C1A U17C G25U A33U, the nonsense suppression was not above 0.026.

Consider G15C U17C G84C, for which the nonsense suppression was not above 0.026.

As for A13C A54C C75G G88C, the nonsense suppression is not above 0.026.

For U4A G28U A60C, the nonsense suppression was not above 0.026.

Turning to A24C U35A C81U, the nonsense suppression is not above 0.026.

Take C11G A24G A74G: the nonsense suppression was not above 0.026.

With G15U G26A U57A G86C, the nonsense suppression was not above 0.026.

With C12G A24C, the nonsense suppression was not above 0.026.

Regarding C11G U16G C29U G61A A87G, the nonsense suppression is not above 0.026.

For the variant C5G G25U A31G A33G C72A, the nonsense suppression is not above 0.026.

For G66U U76A, the nonsense suppression is not above 0.026.

On to C56U U57A G73A C77A G86C, for which the nonsense suppression was not above 0.026.

Take C5U U76A C79A: the nonsense suppression is not above 0.026.

C1G G10C C29U C34G A89G: the nonsense suppression is not above 0.026.

A9G G15U A23G G25U A30C: the nonsense suppression was not above 0.026.

For U4A G25A U55G U70G C77U, the nonsense suppression was not above 0.026.

Take G26U A33G: the nonsense suppression is not above 0.026.

In the case of U20C A62C C75U C81A, the nonsense suppression was not above 0.026.

As to U57G G73U C81A, the nonsense suppression was not above 0.026.

Turning to A31U G32C G85U, the nonsense suppression is not above 0.026.

Take A33G C75U: the nonsense suppression was 0.275.

Take U8A G15U G59A: the nonsense suppression was not above 0.026.

Take G18C C81G: the nonsense suppression is not above 0.026.

Regarding C12A C64A, the nonsense suppression was not above 0.026.

Regarding A9G G15C G28A, the nonsense suppression was not above 0.026.

On to C1A G18C, for which the nonsense suppression is not above 0.026.

As for G10A U16G A87U, the nonsense suppression is not above 0.026.

Regarding G69C G86A, the nonsense suppression was not above 0.026.

As for U8A G88U, the nonsense suppression was not above 0.026.

For the variant U2G U4A C68A, the nonsense suppression was not above 0.026.

On to U4G G6A U8G A9U, for which the nonsense suppression was not above 0.026.

For A9U G18A G25C, the nonsense suppression was not above 0.026.

As for C12G G26A, the nonsense suppression was not above 0.026.

C34G U58C: the nonsense suppression is not above 0.026.

Turning to G18A U58G G69A C77U, the nonsense suppression was not above 0.026.

C12A G25A: the nonsense suppression was not above 0.026.

Consider G7A G32A C34U C64A C68G, for which the nonsense suppression was not above 0.026.

Turning to C64U A74G, the nonsense suppression was not above 0.026.

Take U22G C68G: the nonsense suppression was not above 0.026.

For the variant C34G C56U, the nonsense suppression is not above 0.026.

On to A14G G18U U22G, for which the nonsense suppression was not above 0.026.

Consider G7C G25U A31U, for which the nonsense suppression is not above 0.026.

Consider U2C C3A U57G U71C, for which the nonsense suppression was not above 0.026.

In the case of A23U G26U G32C A54U C72A, the nonsense suppression was not above 0.026.

On to G7C A54U, for which the nonsense suppression is not above 0.026.

For U8A C77U G88A, the nonsense suppression is not above 0.026.

Turning to C3A C12G, the nonsense suppression was not above 0.026.

Regarding G19U C77U G85U, the nonsense suppression was not above 0.026.

As for A31G A89U, the nonsense suppression was not above 0.026.

Consider U17C G18U G69A U76C, for which the nonsense suppression was not above 0.026.

On to A23C A31G, for which the nonsense suppression was not above 0.026.

On to C27G G85C, for which the nonsense suppression was not above 0.026.

Turning to U21A A24G A62C G65A G88C, the nonsense suppression was not above 0.026.

For the variant A33G G67C, the nonsense suppression is not above 0.026.

In the case of G7A C11U U35A G78A, the nonsense suppression is not above 0.026.

For the variant C1G U4G G78C, the nonsense suppression is not above 0.026.

For the variant C11A C79U, the nonsense suppression is not above 0.026.

For the variant U2G U57C C72A, the nonsense suppression is not above 0.026.

Regarding G25C A62C U63G G86A, the nonsense suppression is not above 0.026.

Regarding U2A U22G C29A C34A, the nonsense suppression came out at 0.221.

Regarding G61C A87C, the nonsense suppression was determined as 0.0361.

Take G15U U17A G28U C29G U57A: the nonsense suppression is not above 0.026.

For A33C G78C, the nonsense suppression was not above 0.026.

With A23G U35C, the nonsense suppression is not above 0.026.

For C12A A87U, the nonsense suppression was not above 0.026.

For the variant C3U C34G C72G C81U, the nonsense suppression was not above 0.026.

Turning to U4A U58G G61A, the nonsense suppression is not above 0.026.

Regarding G7U G86C, the nonsense suppression is not above 0.026.

G19U A33U: the nonsense suppression was not above 0.026.

Turning to U55A G59U C80U, the nonsense suppression is not above 0.026.

For U8A G28A A62C G84C, the nonsense suppression is not above 0.026.

Regarding A9C G10C C29G U76G, the nonsense suppression is not above 0.026.

Turning to C34A U76A, the nonsense suppression is not above 0.026.

Regarding C5G C56G, the nonsense suppression is not above 0.026.

As to U2A C12G A31G C34G U57C A87C, the nonsense suppression was not above 0.026.

For the variant C27G G61U C80U, the nonsense suppression was not above 0.026.

Regarding C34A A62C C75G G85C, the nonsense suppression is not above 0.026.

With C1G A60C, the nonsense suppression is not above 0.026.

C68U U71C: the nonsense suppression came out at 0.0274.

For the variant U2C C5G G86C, the nonsense suppression is not above 0.026.

For U57G G59U, the nonsense suppression is not above 0.026.

As to G6C A30U C81G, the nonsense suppression was not above 0.026.

Consider C11U U17C G19U A54C A89G, for which the nonsense suppression was not above 0.026.

Consider C34G U63G C64U U70G C79G, for which the nonsense suppression is not above 0.026.

For the variant C77G C83G, the nonsense suppression is not above 0.026.

Take G25A C27U A33U U57G: the nonsense suppression is not above 0.026.

As for A24U A33U U58G G67C, the nonsense suppression is not above 0.026.

Consider U2C G15A G32C, for which the nonsense suppression was not above 0.026.

With G32C G84A, the nonsense suppression was not above 0.026.

As for G7A U21A G26A U57G G86C, the nonsense suppression was not above 0.026.

Take G10U U35G A89C: the nonsense suppression was not above 0.026.

Take G7U A33G A60G C72G: the nonsense suppression was not above 0.026.

Regarding U8C U16G G78A, the nonsense suppression is not above 0.026.

Take U4A U20G C56A U71A C77U: the nonsense suppression was not above 0.026.

For the variant C1G C82U A87C, the nonsense suppression is not above 0.026.

Turning to G61A U63A G66A, the nonsense suppression is not above 0.026.

Consider A23U G66A, for which the nonsense suppression was not above 0.026.

Consider G28U A89C, for which the nonsense suppression was not above 0.026.

Take G6A A24U: the nonsense suppression worked out at 0.0308.

On to U21G C75G, for which the nonsense suppression worked out at 1.05.

With G15A G66A, the nonsense suppression is not above 0.026.

For C1G G18U A23G, the nonsense suppression was not above 0.026.

With C3G G6C A30G U76A A89C, the nonsense suppression is not above 0.026.

Take G59A U70C: the nonsense suppression is not above 0.026.

On to A13U G25U A33G C34U A60C, for which the nonsense suppression was not above 0.026.

Regarding A31C U76G, the nonsense suppression was not above 0.026.

G18A G28U: the nonsense suppression was not above 0.026.

As to A14G C64G G65C C83U, the nonsense suppression is not above 0.026.

For the origin of these results see the RNAGym collection of RNA variant scans (doi:10.1101/gad.245936.114).
